Results on 110 sequences are retold here after the supplement of paper PMC3334620.

Whole data set: some 33,000 sequences, median “E-score (-0.5 to 0.5)” near -0.013, cut for the highest 2% near 0.3. This is one part of the list.

This assay concerns the target T1, Msn1 (UniProt P22148).
T1 sequence: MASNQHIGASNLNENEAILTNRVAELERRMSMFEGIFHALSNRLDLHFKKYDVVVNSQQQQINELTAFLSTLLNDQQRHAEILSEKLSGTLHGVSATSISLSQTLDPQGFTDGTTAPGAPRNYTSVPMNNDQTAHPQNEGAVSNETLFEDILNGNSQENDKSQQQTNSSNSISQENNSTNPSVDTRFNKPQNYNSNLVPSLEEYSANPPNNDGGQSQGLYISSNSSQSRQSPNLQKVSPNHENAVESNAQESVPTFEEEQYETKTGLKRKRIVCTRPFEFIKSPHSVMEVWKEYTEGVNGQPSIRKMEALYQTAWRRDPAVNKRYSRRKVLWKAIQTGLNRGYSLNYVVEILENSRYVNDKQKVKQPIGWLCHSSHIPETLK
Kind of assay: PBM E-score (8-mer binding enrichment) (E-score (-0.5 to 0.5)); higher = stronger / more preferred TF binding; most listed sequences are background and not binding sites. The note with it: protein concentration: 200 nM; construct: GST-full length. As for the experimental part: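 Universal 'all 10-mer' protein binding microarrays (Agilent AMADID 015681) probed with GST-tagged S. cerevisiae TFs (full-length or DBD) made by in vitro transcription/translation (PURExpress), about 100-200 nM. Bound TF was detected with fluorescent anti-GST. Each ungapped 8-mer (which stands for itself and its reverse complement) is scored by the PBM enrichment score (E-score), a modified Wilcoxon-Mann-Whitney statistic from -0.5 to +0.5, computed with the Universal PBM Analysis Suite. Scale: above 0.35 generally sequence-specific binding.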
Regarding ATGGGACC, the “PBM E-score” value was found to be 0.00395. On to CCAATTAG, for which the “PBM E-score” value is 0.128. For the sequence GTCGGCCA, the “PBM E-score” value is -0.298.

CCCTAAAA: the “PBM E-score” value was -0.0623. The figure for ACCAAGCG is -0.17. With CCGATCAA, the “PBM E-score” value was -0.0451.

Turning to GGATGAAC, the “PBM E-score” value is -0.0703. The figure for GGGCGGAA is -0.1; for ATCGGAAG it is 0.031; for TAATAGTA it is 0.156. With CCTAGGAG, the “PBM E-score” value was -0.068. Consider AACGGACT, for which the “PBM E-score” value is -0.00389. The value for ACGGCACA was -0.00613; that for GTTTATTA was 0.174; that for GTCCTCCA was 0.145.

In the case of ACATCCAA, the “PBM E-score” value stood at 0.141.

In the case of CGATTGCG, the “PBM E-score” value was -0.0545. CCTTTACC: the “PBM E-score” value is -0.116. For ACTTGATA, the “PBM E-score” value stood at 0.27.

Consider CTGCGCCC, for which the “PBM E-score” value is -0.219. On to ATGTAGTG, for which the “PBM E-score” value is -0.0691. The value for GTTATAAA was 0.205; that for CTCACAGA was 0.0295; that for GTTAGTAA was 0.0398.

Take AAGACTTG: the “PBM E-score” value came to 0.134.

As for AGTTGCAG, the “PBM E-score” value was -0.128.

Consider AGCCATAG, for which the “PBM E-score” value is -0.0834. With AGTGGTGA, the “PBM E-score” value worked out at 0.0265.

As for ACAAAACA, the “PBM E-score” value stood at 0.278.

Regarding CCGGACGC, the “PBM E-score” value was 0.13. The figure for CTTCCCCC is -0.302; for ATGCATAC it is 0.0529. With AACTCCCG, the “PBM E-score” value is -0.0488. In the case of TTACTCAA, the “PBM E-score” value amounted to 0.0639.

With CATGCCAA, the “PBM E-score” value came to 0.01. As to ATGAAAGA, the “PBM E-score” value was -0.00032.

Turning to ACTCGGCC, the “PBM E-score” value amounted to 0.109. Regarding GAGCCATC, the “PBM E-score” value is -0.171. On to CCACGAAA, for which the “PBM E-score” value came to 0.171. Regarding CCCTCCCG, the “PBM E-score” value was -0.157. For AAATAATC, the “PBM E-score” value was 0.0127. The value for ACGCGTTC was 0.122. As to CGACTCCG, the “PBM E-score” value was -0.0986.

Turning to TGGGCAAA, the “PBM E-score” value is 0.0303. In the case of AAAGCGCA, the “PBM E-score” value is -0.153. On to CTAAAATA, for which the “PBM E-score” value was 0.0361. The value for GTAAAGCA was 0.0239; that for ATAAATAC was 0.227. Turning to CCGGGCCA, the “PBM E-score” value is -0.114.

For CTGAGTGC, the “PBM E-score” value was -0.0601. In the case of CTACTAAA, the “PBM E-score” value is 0.057. Take CTTGGTTA: the “PBM E-score” value worked out at 0.114. The figure for GACCCGTA is -0.049; for CGAAACGA it is 0.128; for AAGTTTTG it is -0.0744. GCGGGCGA: the “PBM E-score” value stood at 0.0449. Take AGATCTAC: the “PBM E-score” value was -0.165.

For the sequence ATAGATGC, the “PBM E-score” value was -0.054.

Take CAGTCGGA: the “PBM E-score” value was 0.0274.

In the case of ACCTTATG, the “PBM E-score” value was 0.051. With GTCAATAA, the “PBM E-score” value came out at 0.0557. Turning to TATGATGA, the “PBM E-score” value was 0.126. As for CGCTACAA, the “PBM E-score” value was -0.117. The figure for CGGAGATC is -0.037; for CAACTCTA it is 0.152. Turning to CGGACGGC, the “PBM E-score” value stood at 0.0619. With AGTTCGCC, the “PBM E-score” value came to 0.00171.

For ATGTGGCA, the “PBM E-score” value was found to be 0.00204. Regarding AATGCTAG, the “PBM E-score” value was -0.0942. Turning to AAGCGATA, the “PBM E-score” value was -0.098. Take AAGTAATG: the “PBM E-score” value amounted to 0.155. Take CCGACCTC: the “PBM E-score” value was 0.037. For the sequence TGTGGGAA, the “PBM E-score” value was -0.163. Take CTCAGACA: the “PBM E-score” value amounted to 0.317. Take AATCATTG: the “PBM E-score” value worked out at 0.0726. Take AGCCTGAT: the “PBM E-score” value amounted to 0.0744.

With ATACGCAC, the “PBM E-score” value was -0.058. Consider ATCGTCCA, for which the “PBM E-score” value was -0.0991. With GGCGTCGA, the “PBM E-score” value was found to be 0.0944. In the case of ACTAATGC, the “PBM E-score” value came to 0.178. As for AAGAACTG, the “PBM E-score” value was -0.0361.

For the sequence ACGCCGTC, the “PBM E-score” value turned out to be 0.0507. For GGATTTAC, the “PBM E-score” value stood at 0.0787.

With CCCCACGG, the “PBM E-score” value is -0.321. With GAATCTCA, the “PBM E-score” value was -0.11. For the sequence GAAGGTAA, the “PBM E-score” value is -0.0079. CTCAGATC: the “PBM E-score” value worked out at 0.0872. Consider ATATCCTA, for which the “PBM E-score” value came to 0.0467. Regarding ACGTGCGG, the “PBM E-score” value was 0.041. In the case of CTCTTCTA, the “PBM E-score” value is -0.0621. Turning to CACTATAG, the “PBM E-score” value came out at 0.115.

As for GAGAAGGA, the “PBM E-score” value is -0.27. As to AGCTACTC, the “PBM E-score” value is -0.202.

For GCTACATA, the “PBM E-score” value came to 0.0565. Turning to CCACGACC, the “PBM E-score” value is -0.268.

With CGGTCATC, the “PBM E-score” value was -0.116. AGCCACTA: the “PBM E-score” value was -0.0424. Take CACATTAC: the “PBM E-score” value was found to be 0.0152. Consider AAAATGGG, for which the “PBM E-score” value was 0.182.

For AGCTCGGC, the “PBM E-score” value came out at 0.0546. The figure for AGTCCAAA is 0.214; for ATTGTTGC it is 0.0748. As to ACTTCAAT, the “PBM E-score” value was 0.0828. CACCCGAC: the “PBM E-score” value came out at 0.0109. Consider CTGGCGTC, for which the “PBM E-score” value is -0.176. In the case of CCTTTTCA, the “PBM E-score” value was 0.072. As to AAGCGCCA, the “PBM E-score” value is -0.303. The value for ATTCCCTA was -0.0665. The figure for AATAGTCT is 0.0101; for AGGCCACT it is -0.264.
